Results published in patent US20250043004A1 (Janssen / Centocor, published 2025).

T1: BCMA (human, UniProt Q02223 1-184)
T1 construct: whole, on cells; On NCI-H929 myeloma cells, which also carry CD28; also called B-cell maturation antigen; TNFRSF17
T1 sequence (looked up): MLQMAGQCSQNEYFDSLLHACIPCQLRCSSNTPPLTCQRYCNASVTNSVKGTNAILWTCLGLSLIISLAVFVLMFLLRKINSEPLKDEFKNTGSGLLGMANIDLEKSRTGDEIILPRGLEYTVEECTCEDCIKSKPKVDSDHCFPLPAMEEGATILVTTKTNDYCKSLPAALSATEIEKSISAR

B1: VB28B35 (other)
scFv: DIQMTQSPSSLSASVGDRVTITCRSSQSLVHSSGNTYLHWYQQKPGKAPKFLIYKVSNRFSGVPSRFSGSGSGTDFTLTISSLQPEDFATYYCSQSTHVPFTFGQGTKLEIKGGSEGKSSGSGSESKSTGGSQVQLQESGPGLVKPSETLSLTCTVSGYSITSGYFWNWIRQPPGKGLEWIGYISYDGSNNYNPSLKSRVTISRDTSKNQFSLKLSSVTAADTAVYYCASPSPGTGYAVDYWGQGTLVTVSSEPKSSDKTHTCPPCPAPEAAGGPSVFLFPPKPKDTLMISRTPEVTCVVVSVSHEDPEVKFNWYVDGVEVHNAKTKPREEQYNSTYRVVSVLTVLHQDWLNGKEYKCKVSNKALPAPIEKTISKAKGQPREPQVYTLPPSREEMTKNQVSLWCLVKGFYPSDIAVEWESNGQPENNYKTTPPVLDSDGSFFLYSKLTVDKSRWQQGNVFSCSVMHEALHNHYTQKSLSLSPGK
heavy: QVQLQQPGSELVRPGASVKLSCKASGYTFTSYWMHWVKQRHGQGLEWIGNIYPGSGRTNYDEKFKSKGTLTVDTSSRTAYMHLSSLTSEDSAVYYCTREHYGSNSHPMDYWGQGTSVTVSSASTKGPSVFPLAPSSKSTSGGTAALGCLVKDYFPEPVTVSWNSGALTSGVHTFPAVLQSSGLYSLSSVVTVPSSSLGTQTYICNVNHKPSNTKVDKKVEPKSCDKTHTCPPCPAPEAAGGPSVFLFPPKPKDTLMISRTPEVTCVVVSVSHEDPEVKFNWYVDGVEVHNAKTKPREEQYNSTYRVVSVLTVLHQDWLNGKEYKCKVSNKALPAPIEKTISKAKGQPREPQVYTLPPSREEMTKNQVSLSCAVKGFYPSDIAVEWESNGQPENNYKTTPPVLDSDGSFFLVSKLTVDKSRWQQGNVFSCSVMHEALHNRFTQKSLSLSPGK
light: EIVLTQSPGTLSLSPGERATLSCRASQSISSSFLTWYQQKPGQAPRLLIYGASSRATGIPDRFSGGGSGTDFTLTISRLEPEDFAVYYCQHYGSSPMYTFGQGTKLEIKGGSEGKSSGSGSESKSTGGS[about 100 residues not spelt out]DEGYSSGHYYGMDVWGQGTTVTVSSGGSEGKSSGSGSESKSTGGSDIQMTQSPASLSASVGETVTITCGASENIYGSLNWYQRKQGKSPQLLIYGATNLADGMSSRFSGSGSGRQFSLKISSLHPDDVATYYCQNLLSTPYTFGGGTKLELKRTVAAPSVFIFPPSDEQLKSGTASVVCLLNNFYPREAKVQWKVDNALQSGNSQESVTEQDSKDSTYSLSSTLTLSKADYEKHKVYACEVTHQGLSSPVTKSFNRGEC
notes: Trispecific antibody Vβ17 × CD28 × BCMA, human IgG1; also called Vβ28B35
B2: VB28B39 (other)
scFv: EIVLTQSPGTLSLSPGERATLSCRASQSISSSFLTWYQQKPGQAPRLLIYGASSRATGIPDRFSGGGSGTDFTLTISRLEPEDFAVYYCQHYGSSPMYTFGQGTKLEIKGGSEGKSSGSGSESKSTGGS[about 100 residues not spelt out]DEGYSSGHYYGMDVWGQGTTVTVSSEPKSSDKTHTCPPCPAPEAAGGPSVFLFPPKPKDTLMISRTPEVTCVVVSVSHEDPEVKFNWYVDGVEVHNAKTKPREEQYNSTYRVVSVLTVLHQDWLNGKEYKCKVSNKALPAPIEKTISKAKGQPREPQVYTLPPSREEMTKNQVSLWCLVKGFYPSDIAVEWESNGQPENNYKTTPPVLDSDGSFFLYSKLTVDKSRWQQGNVFSCSVMHEALHNHYTQKSLSLSPGK
heavy: QVQLQQPGSELVRPGASVKLSCKASGYTFTSYWMHWVKQRHGQGLEWIGNIYPGSGRTNYDEKFKSKGTLTVDTSSRTAYMHLSSLTSEDSAVYYCTREHYGSNSHPMDYWGQGTSVTVSSASTKGPSVFPLAPSSKSTSGGTAALGCLVKDYFPEPVTVSWNSGALTSGVHTFPAVLQSSGLYSLSSVVTVPSSSLGTQTYICNVNHKPSNTKVDKKVEPKSCDKTHTCPPCPAPEAAGGPSVFLFPPKPKDTLMISRTPEVTCVVVSVSHEDPEVKFNWYVDGVEVHNAKTKPREEQYNSTYRVVSVLTVLHQDWLNGKEYKCKVSNKALPAPIEKTISKAKGQPREPQVYTLPPSREEMTKNQVSLSCAVKGFYPSDIAVEWESNGQPENNYKTTPPVLDSDGSFFLVSKLTVDKSRWQQGNVFSCSVMHEALHNRFTQKSLSLSPGK
light: DIQMTQSPSSLSASVGDRVTITCRSSQSLVHSSGNTYLHWYQQKPGKAPKFLIYKVSNRFSGVPSRFSGSGSGTDFTLTISSLQPEDFATYYCSQSTHVPFTFGQGTKLEIKGGSEGKSSGSGSESKSTGGSQVQLQESGPGLVKPSETLSLTCTVSGYSITSGYFWNWIRQPPGKGLEWIGYISYDGSNNYNPSLKSRVTISRDTSKNQFSLKLSSVTAADTAVYYCASPSPGTGYAVDYWGQGTLVTVSSGGSEGKSSGSGSESKSTGGSDIQMTQSPASLSASVGETVTITCGASENIYGSLNWYQRKQGKSPQLLIYGATNLADGMSSRFSGSGSGRQFSLKISSLHPDDVATYYCQNLLSTPYTFGGGTKLELKRTVAAPSVFIFPPSDEQLKSGTASVVCLLNNFYPREAKVQWKVDNALQSGNSQESVTEQDSKDSTYSLSSTLTLSKADYEKHKVYACEVTHQGLSSPVTKSFNRGEC
notes: Trispecific antibody BCMA × CD28 × Vβ17, human IgG1; also called Vβ28B39
B3: VB28B2 (other)
heavy 1: QVQLQQPGSELVRPGASVKLSCKASGYTFTSYWMHWVKQRHGQGLEWIGNIYPGSGRTNYDEKFKSKGTLTVDTSSRTAYMHLSSLTSEDSAVYYCTREHYGSNSHPMDYWGQGTSVTVSSASTKGPSVFPLAPSSKSTSGGTAALGCLVKDYFPEPVTVSWNSGALTSGVHTFPAVLQSSGLYSLSSVVTVPSSSLGTQTYICNVNHKPSNTKVDKKVEPKSCDKTHTCPPCPAPEAAGGPSVFLFPPKPKDTLMISRTPEVTCVVVSVSHEDPEVKFNWYVDGVEVHNAKTKPREEQYNSTYRVVSVLTVLHQDWLNGKEYKCKVSNKALPAPIEKTISKAKGQPREPQVYTLPPSREEMTKNQVSLWCLVKGFYPSDIAVEWESNGQPENNYKTTPPVLDSDGSFFLYSKLTVDKSRWQQGNVFSCSVMHEALHNHYTQKSLSLSPGGGSEGKSSGSGSESKSTGGSDIQMTQSPSSLSASVGDRVTITCRSSQSLVHSSGNTYLHWYQQKPGKAPKFLIYKVSNRFSGVPSRFSGSGSGTDFTLTISSLQPEDFATYYCSQSTHVPFTFGQGTKLEIKGGSEGKSSGSGSESKSTGGSQVQLQESGPGLVKPSETLSLTCTVSGYSITSGYFWNWIRQPPGKGLEWIGYISYDGSNNYNPSLKSRVTISRDTSKNQFSLKLSSVTAADTAVYYCASPSPGTGYAVDYWGQGTLVTVSS
light 1: DIQMTQSPASLSASVGETVTITCGASENIYGSLNWYQRKQGKSPQLLIYGATNLADGMSSRFSGSGSGRQFSLKISSLHPDDVATYYCQNLLSTPYTFGGGTKLELKRTVAAPSVFIFPPSDEQLKSGTASVVCLLNNFYPREAKVQWKVDNALQSGNSQESVTEQDSKDSTYSLSSTLTLSKADYEKHKVYACEVTHQGLSSPVTKSFNRGEC
heavy 2: QVQLQQPGSELVRPGASVKLSCKASGYTFTSYWMHWVKQRHGQGLEWIGNIYPGSGRTNYDEKFKSKGTLTVDTSSRTAYMHLSSLTSEDSAVYYCTREHYGSNSHPMDYWGQGTSVTVSSASTKGPSVFPLAPSSKSTSGGTAALGCLVKDYFPEPVTVSWNSGALTSGVHTFPAVLQSSGLYSLSSVVTVPSSSLGTQTYICNVNHKPSNTKVDKKVEPKSCDKTHTCPPCPAPEAAGGPSVFLFPPKPKDTLMISRTPEVTCVVVSVSHEDPEVKFNWYVDGVEVHNAKTKPREEQYNSTYRVVSVLTVLHQDWLNGKEYKCKVSNKALPAPIEKTISKAKGQPREPQVYTLPPSREEMTKNQVSLSCAVKGFYPSDIAVEWESNGQPENNYKTTPPVLDSDGSFFLVSKLTVDKSRWQQGNVFSCSVMHEALHNRFTQKSLSLSPGGGSEGKSSGSGSESKSTGGSEIVLTQSPGTLSLSPGERATLSCRASQSISSSFLTWYQQKPGQAPRLLIYGASSRATGIPDRFSGGGSGTDFTLTISRLEPEDFAVYYCQHYGSSPMYTFGQGTKLEIKGGSEGKSSGSGSESKSTGGS[about 100 residues not spelt out]DEGYSSGHYYGMDVWGQGTTVTVSS
light 2: DIQMTQSPASLSASVGETVTITCGASENIYGSLNWYQRKQGKSPQLLIYGATNLADGMSSRFSGSGSGRQFSLKISSLHPDDVATYYCQNLLSTPYTFGGGTKLELKRTVAAPSVFIFPPSDEQLKSGTASVVCLLNNFYPREAKVQWKVDNALQSGNSQESVTEQDSKDSTYSLSSTLTLSKADYEKHKVYACEVTHQGLSSPVTKSFNRGEC
notes: only variable domains are tied; linkers and constant regions are not; also called Vβ28B2

Assays:
[1] = biological target: T1, BCMA; experiment: flow cytometry, H929 cells (BCMA+, CD28+); whole-cell EC50, antibody has BCMA and CD28 arms
[2] = biological target: T2, CD28 (human, UniProt P10747 19-220); experiment: as above
T2 construct: whole, on cells; On human pan T cells and on H929 myeloma cells; the assay field says which; also called Cluster of Differentiation 28

[3] = biological target: T2, CD28; experiment: flow cytometry, human pan T cells, donor 2
[4] = biological target: T2, CD28; experiment: flow cytometry, human pan T cells

Binder	EC50 [1] [µg/mL]	EC50 [2] [µg/mL]	EC50 [3] [µg/mL]	EC50 [4] [µg/mL]
B1	< 0.0046	< 0.0046	> 10	
B2	0.0167	0.0167	> 10	
B3				0.06
